Results taken from PubChem BioAssay AID488969 (Vanderbilt High Throughput Screening Facility, 2010).
Whole data set: some 110,000 compounds, median “z-score” near -0.1, cut for the highest 2% near 2. The list shows a part of the results. The source made the active and inactive calls.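 Rule for the calls: active = z-score in the third read window above 3 or below -3; inactive = the rest.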

target: Metabotropic glutamate receptor 8 (Rattus norvegicus) (UniProt P70579); assay: mGluR8 Gi/Go-coupled signaling modulation – cell-based, rat, thallium flux, HTS, primary screen (AID 488969); settings: HEK293 rat mGluR8, GIRK (G protein-gated inwardly rectifying potassium channel) thallium flux, FluoZin2; at 10 µM; stronger effect = higher value; submaximal glutamate (EC20) added with thallium
Chain of UniProt P70579 (P70579 whole entry, looked up): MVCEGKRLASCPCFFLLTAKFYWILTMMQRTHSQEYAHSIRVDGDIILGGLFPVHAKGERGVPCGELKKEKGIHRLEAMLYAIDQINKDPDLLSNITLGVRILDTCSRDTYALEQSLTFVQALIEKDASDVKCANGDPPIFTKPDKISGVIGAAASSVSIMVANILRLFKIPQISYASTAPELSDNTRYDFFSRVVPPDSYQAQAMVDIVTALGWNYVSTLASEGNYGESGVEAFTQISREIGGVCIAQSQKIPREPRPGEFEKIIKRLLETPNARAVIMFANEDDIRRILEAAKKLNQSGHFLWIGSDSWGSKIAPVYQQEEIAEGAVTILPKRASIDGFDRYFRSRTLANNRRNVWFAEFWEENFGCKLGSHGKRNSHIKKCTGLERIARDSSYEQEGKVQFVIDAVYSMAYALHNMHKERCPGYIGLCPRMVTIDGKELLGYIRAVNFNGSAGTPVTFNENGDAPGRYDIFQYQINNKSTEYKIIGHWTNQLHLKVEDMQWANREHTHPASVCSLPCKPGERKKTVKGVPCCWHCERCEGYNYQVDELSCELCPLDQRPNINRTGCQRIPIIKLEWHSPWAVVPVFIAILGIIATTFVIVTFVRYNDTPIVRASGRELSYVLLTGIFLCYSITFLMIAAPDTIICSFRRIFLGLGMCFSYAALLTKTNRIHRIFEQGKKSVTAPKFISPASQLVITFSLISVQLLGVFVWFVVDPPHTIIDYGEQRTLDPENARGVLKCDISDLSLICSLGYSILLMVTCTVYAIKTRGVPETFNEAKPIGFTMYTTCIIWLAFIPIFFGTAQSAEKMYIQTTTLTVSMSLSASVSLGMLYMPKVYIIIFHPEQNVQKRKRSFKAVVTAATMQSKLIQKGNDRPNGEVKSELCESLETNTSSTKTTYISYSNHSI

SMILES	z-score
O=C(Oc1ccc2c(c1)OCO2)C12CC3CC(CC(C3)C1)C2	-0.302
CSc1nc2nccc(-c3ccc(Oc4ccccc4)cc3)n2n1	-1.45
Cc1cc(NS(=O)(=O)c2ccc(NC(=O)C(C)Oc3ccc(Cl)cc3)cc2)no1 (stereo unspecified)	-0.415
CC1CC1C(=O)OCC(=O)Nc1ccc(N=Nc2ccccc2)cc1 (stereo unspecified)	0.616
COC(=O)c1sc2ccc(C)cc2c1C(=O)OC	-1.28
C#CCn1c(=NC(=O)c2cc(-c3cccs3)nc3ccccc23)sc2cc(S(N)(=O)=O)ccc21	-0.48
CCN(CC)C(=O)CSc1nnc(-c2cc(OC)cc(OC)c2)o1	-0.831
Cn1c(C(C#N)C2=C(Cl)C(=O)N(c3ccccc3)C2=O)nc2ccccc21 (stereo unspecified)	-1.07
Cc1ccc(C(=O)CSc2nnc(-c3ccccc3)o2)cc1	0.068
CN1CCN(CCCNC(=O)Nc2cccc3ccccc23)CC1	-0.83
Cn1c(=O)c2c(nc(N/N=C/c3ccc(OC(=O)c4ccco4)cc3)n2Cc2ccc(F)cc2)n(C)c1=O	0.155
O=C(Nc1cccs1)Nc1c(F)c(F)cc(F)c1F	0.433
Cc1cc(NC(=O)C(C)C)ncc1NC(=O)Cc1ccccc1	1.07
Cc1ccc(-n2c(SCC(=O)Nc3ncc(Cl)cc3Cl)nc3ccccc32)cc1	0.924
O=C(CSCC(=O)N1CCOCC1)Nc1nc(-c2ccc3c(c2)OCO3)cs1	2
O=C1Nc2ccc([N+](=O)[O-])cc2C1(O)N1CCCCC1 (stereo unspecified)	-0.153
Cc1ccc(/C=C2\SC(=S)N(c3c(C)n(C)n(-c4ccccc4)c3=O)C2=O)cc1	-0.188
O=C(CS(=O)CC(=O)N(c1ccccc1)C(C(=O)NC1CCCC1)c1cccs1)Nc1ccc(F)cc1 (stereo unspecified)	-0.139
CCn1nc(C(=O)Nc2ccc(C)c(C)c2)c(Cl)c1Cl	-0.2
CCN(CC)CCCN=Cc1c(O)n(Cc2ccccc2)c(=O)c2ccccc12	1.96
O=c1c2ccccc2c(C=NCc2ccccn2)c(O)n1-c1ccccc1	active: 9.73
O=C(c1cc2sccc2n1Cc1ccc(F)cc1)N1CCN(c2nc3ccccc3s2)CC1	0.851
Cn1nnnc1SCC(=O)Nc1ccc(Oc2ccccc2)cc1	0.389

SMILES	z-score
CCN1CCN(c2c(Cl)cccc2NC(=O)c2ccc(Br)o2)CC1	0.378
C=CCn1c(SCc2ccc(F)cc2)nc2c1c(=O)[nH]c(=O)n2C	0.000124
O=C(NC1(C(F)(F)F)NC(=O)N(Cc2ccccc2)C1=O)c1cccnc1 (stereo unspecified)	-0.773
Cn1c(CO)cnc1S(=O)(=O)Cc1ccc([N+](=O)[O-])cc1	-0.151
CCOC(=O)c1sc(NC(=O)C(CC)Sc2nc3ccccc3[nH]2)nc1C (stereo unspecified)	-0.155
CCS(=O)(=O)NCC(c1cccnc1)N1CCN(c2ccccc2)CC1 (stereo unspecified)	1.7
O=C(Nc1ccccc1F)C1CCN(C(=O)Cc2ccccc2)CC1	-0.0173
CC/C(C)=N/Nc1ccc(S(=O)(=O)N2CCCC2)cc1[N+](=O)[O-]	-0.434
Cc1ccc(N2C(=N)/C(=C3/Nc4ccccc4S3)C(c3ccccc3)C2=O)cc1 (stereo unspecified)	-0.472
CN(C)C(/C=C/Nc1ccc(F)cc1F)=C(C#N)C#N	0.0645
O=C(C1CCCO1)N1CCN(C(=S)Nc2ccccc2)CC1 (stereo unspecified)	-0.0569
Cc1nn(C(=O)CNS(=O)(=O)c2ccccc2)c(C)c1Sc1ccc(Cl)cc1	-0.299
CC(C)(C)OC(=O)N/N=C/c1ccc(N2CCOCC2)s1	-0.551
COc1cc(CC(=O)Nc2ccc3c(c2)CCC3)cc(OC)c1OC	-0.196
Cc1ccc(C)c(SCC(=O)Nc2nnc(-c3ccccc3)o2)c1	1.49
CCC(C)NC(=O)CS(=O)Cc1nc(-c2ccccc2C)oc1C (stereo unspecified)	-0.0162
COc1cc(C(=O)Oc2ccc3c(c2)OCC3=O)cc(OC)c1OC	-0.369
Cc1cc(C)nc(SCC(=O)N/N=C/c2cccn2-c2ccc(O)cc2)n1	-0.417
Clc1ccc(-c2cn3cc(Br)ccc3n2)cc1Cl	-0.148
CCOc1ccc(N(CC(=O)N2CCCC2)S(=O)(=O)c2c(C)noc2C)cc1	0.0369
COc1cc(C)c(Cl)cc1S(=O)(=O)n1cnc(C)c1	0.326
O=C(CSCc1ccccc1)NC1CCSC1=O (stereo unspecified)	0.14
CC1CCN(S(=O)(=O)c2ccc(NC(=O)CN3CCOCC3)cc2)CC1	0.18

SMILES	z-score
Cc1ccc(-n2nnc3c(SCC(=O)N4CCN(c5ccccc5)CC4)ncnc32)cc1	1.22
O=C(CSc1nnc(C2CC2)n1-c1ccccc1)NCc1ccco1	-0.619
CC(=O)c1sc(NC(=O)c2cc3c(C)nn(-c4ccccc4)c3s2)nc1C	-0.0973
O=C(CN(CC1CCCO1)C(=O)CNS(=O)(=O)c1ccc(Cl)cc1)NCCc1ccccc1 (stereo unspecified)	-0.11
Cc1ccc(C)c(NC(=O)CC(NCCCN2CCOCC2)C(=O)O)c1 (stereo unspecified)	0.145
CCOc1cc(C2c3c(n[nH]c3C)C(=O)N2c2ccc(Br)cc2)ccc1O (stereo unspecified)	-0.976
CCc1ccc(C2NC(=S)NC3=C2C(=O)CC(C)(C)C3)cc1 (stereo unspecified)	-0.048
COc1ccc(C2N(c3cc(Cl)ccc3OC)C(=O)C3CCCN32)cc1OC (stereo unspecified)	-0.492
Cc1cccc(OCC(=O)Nc2cccc(-c3nnc(-c4ccccc4)o3)c2)c1C	-0.0288
O=C(C1CCCO1)N1N=C(c2ccc(Br)cc2)CC1c1ccco1 (stereo unspecified)	-0.195
COc1cc(/C=C2/C(=O)NN(c3cccc(C)c3)C2=O)ccc1OC(=O)c1ccco1	-0.244
Clc1cccc(Oc2ncccn2)c1	-0.0109
O=C(c1ccc2ccccc2c1)N1CCN(c2ccc([N+](=O)[O-])c(N3CCOCC3)c2)CC1	-0.791
Cc1ccc(S(=O)(=O)c2cn(Cc3ccc(F)cc3)c3cc4c(cc3c2=O)OCO4)cc1	-0.295
CS/C(=N\NC(N)=O)c1ccccc1	-0.39
C/C(=C\C(=S)Nc1ccccc1)Nc1ccc2ccccc2c1	-0.168
CCOC(=O)/C=C/C(=O)Nc1ccccc1-c1ccccc1NC(=O)/C=C/C(=O)OCC	-0.138
Cc1nc2nc(-c3ccco3)nn2c(C)c1Cl	0.152
CCOC(=O)c1c(N)nn(C(C)=O)c1-c1ccccc1	0.536
Clc1ccc(-n2c(SCc3nc4ccccc4[nH]3)nnc2-c2ccncc2)cc1	0.063
CCOCCCNC(=O)c1cc(Sc2ccc(C)cc2)nc2ccccc12	-0.896
Cc1cc[n+](C2=C([O-])c3ccccc3C(=O)/C2=N\S(=O)(=O)c2cccs2)cc1C	-0.234
O=C(CSc1nc2ccccc2o1)c1ccccc1	-0.0752

SMILES	z-score
Cc1nn(-c2ccccc2)cc1/C=N/O	0.614
CCOC(=O)C1CCCN(C(=O)c2cc(Nc3ccc(OC)c(OC)c3)nc3ccccc23)C1 (stereo unspecified)	0.596
Cc1cc(C)nc(N2CCCC(C(=O)NCCc3cccc(F)c3)C2)n1 (stereo unspecified)	-0.0417
COc1ccccc1Nc1ccc(Nc2ccccc2OC)nn1	2.82
Cc1ccc2nc(-c3ccccn3)cc(C(=O)NC3CCN(C)CC3)c2c1	0.0319
CCOC(=O)C1=NNC(C(=O)c2ccc(Cl)cc2)C1c1ccccc1 (stereo unspecified)	-1.01
CCOCCCNC(=O)c1cccs1	-0.0746
Cc1cc(C)c2c(N)c(S(=O)c3ccc(C(C)(C)C)cc3)sc2n1 (stereo unspecified)	-0.276
CC(C)(C)OC(=O)N1CCCC1C(=O)O (stereo unspecified)	0.968
O=C(COc1cccc2ccccc12)NNC(=O)CSCCO	-0.199
COC(=O)N/N=C/c1c(C)nn(-c2cccc(Cl)c2)c1Cl	-0.272
CCOc1ccc(NS(=O)(=O)c2ccc3c(c2)CCN3C(=O)CCC(=O)O)cc1	-0.111
CCOc1cc(/C=C2\C(=O)N(Cc3ccc(C)cc3)C(C)=C2C(=O)OC)ccc1O	-0.136
CCOC(=O)c1sc(NC(=O)CSc2nnc(-c3ccco3)o2)c(C(=O)OCC)c1C	-1.07
O=C(Cn1cc(C(=O)c2ccco2)c2ccccc21)NC1CCCC1	-0.0135
O=C(CCn1cnc2ccccc2c1=O)Nc1cccc(Cl)c1	0.128
CCOCc1nc(N)[nH]c(=O)c1Cc1ccc(OC(C)C)cc1	-0.264
Cc1occc1C(=O)NC(C)C1CCCO1 (stereo unspecified)	0.0299
O=C(Nc1nncs1)C1c2ccccc2Oc2ccccc21	-0.171
CC(=O)c1cccc(NS(=O)(=O)c2ccc(N/C=C\C(=O)c3ccc(F)cc3)cc2)c1	0.0754
Cc1ccnc(NC(=S)NC(=O)/C=C/c2ccccc2)c1	-0.0726
O=C(O)CCC(=O)NCC1OCCc2ccccc21 (stereo unspecified)	-0.0772
O=C(OCCCN1C(=O)c2ccccc2C1=O)c1ccco1	0.00586

SMILES	z-score
COC(=O)c1sc(NC(=O)COc2ccccc2OC)nc1C	0.968
NNC(=O)Cc1cn(-c2ncc(C(F)(F)F)cc2Cl)c2ccccc12	-0.17
Cc1ccc(-c2nnc(-c3ccccc3)o2)cc1	-0.254
Cc1ccc(NC(=O)COC(=O)Cc2csc(-c3cccc(F)c3)n2)cc1C	-0.279
COC(=O)NC(NC(=S)Nc1ccccc1OC)C(Cl)(Cl)Cl (stereo unspecified)	-0.165
Cc1cc(=O)oc2cc(OCC(=O)NCc3cccnc3)ccc12	-0.363
CCC(=O)N(Cc1cc2ccccc2[nH]c1=O)C(C)C	0.0128
O=C1OC(Nc2cc(Br)cc3cccnc23)c2ccccc21 (stereo unspecified)	-0.139
N#C/C(=C1\CCCN1)c1nc2ccccc2c(=O)[nH]1	-0.0144
O=C(NCc1ccc(Cl)cc1Cl)c1ccccn1	-0.0328
C=C1c2cc(C)ccc2NC(=O)N1c1ccc(C)cc1	-0.68
O=[N+]([O-])c1ccc(Oc2c(F)c(F)nc(N3CCCC3)c2F)cc1	0.0329
Cc1nc2ccccc2c(=O)n1/N=C/c1cccnc1	0.936
CC(=O)c1ccc(NC(=O)COC(=O)c2ccccc2N=Nc2ccc(N(C)C)cc2)cc1	-0.29
CC(C)(C)OC(=O)NCCCC(CCCNC(=O)OC(C)(C)C)C(=O)O	0.00715
O=C(CSc1nc(O)cc(=O)[nH]1)Nc1ccc2c(c1)CCC2	0.385
Cc1nn(C)cc1/C=N/NC(=O)c1ccc2c(c1)OCO2	0.196
COc1cc(C(=S)N2CCCCC2)ccc1OCC(=O)N1CCCC1	-0.248
Cc1n[nH]c(C)c1S(=O)(=O)N1CCN(C2CCCCC2)CC1	-0.213
